Measurements as given in patent publication US5821386A (priority 1997, dated 1998).

Assay: Eight hour time course of locomotor stimulation, cocaine alone and Compound 2 alone (Example 4)
Settings: for ED50: Mus musculus, ip, read-out: ED50 (dose producing one half maximal stimulant activity)

Structure (SMILES)	time period in which maximal stimulant effects first appeared (IP, Compound 2) [min]	ED50 (310 min) [mg/kg]	ED50 (0.5 h) [mg/kg]
CCCN(C)C1CC(c2ccc(Cl)c(Cl)c2)c2ccccc21 (stereo not drawn) [Compound 2]	280 to 310	3.3	
COC(=O)[C@H]1[C@@H](OC(=O)c2ccccc2)C[C@@H]2CC[C@H]1N2C [cocaine]			8.8

Where two headings read alike, the source gives them in different places.
